# From the supplement of paper PMC8728848
# Some of the results follow.
# B1: CrataBL (Crataeva tapia), C0HJA4 (protein)
# chain: AILTGVPYYILPSTSRAGFSPDNLRKNTSQLSCPLDLITQLRFPRRIGVPVIFTPQNSSLKVVPLSHNLNIHTCSDLWFCPESKIWTVKSSLTHGGSVVTTGGTFRSLGSWFRIERHGDSYKLVHCPRGSTPCRDVGIETVGGGGRRYLAPRDRPLAVRFTRASG
# Columns and labels:
# Assay in all cases: glycan array binding signal (z-score within array); higher = stronger binding
# Conditions in all cases: glycan notation: IUPAC condensed, linker removed
# [1] = biological target: GlcNAc(a1-6)Gal(b1-4)GlcNAc
# In short: (§1)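 Glycan array binding is given as a within-array Z-score, which can be read as non-binding when negative. The arrays, 3228 of them, came from the Consortium for Functional Glycomics database and were retained only where the protein sequence was available. Z-scores were averaged across arrays of the same protein sequence at different concentrations or buffers and across linkers.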
# [2] = biological target: GlcNAc(b1-2)Gal(b1-3)GalNAc
# In short: as §1
# [3] = biological target: GlcNAc(b1-2)Man(a1-3)[GlcNAc(b1-2)Man(a1-6)]Man(b1-4)GlcNAc(b1-4)GlcNAc
# In short: as §1
# [4] = biological target: GlcNAc(b1-2)Man(a1-3)[GlcNAc(b1-2)Man(a1-6)]Man(b1-4)GlcNAc(b1-4)[Fuc(a1-6)]GlcNAc
# In short: as §1
# [5] = biological target: GlcNAc(b1-2)Man(a1-3)[GlcNAc(b1-4)][GlcNAc(b1-2)Man(a1-6)]Man(b1-4)GlcNAc(b1-4)GlcNAc
# In short: as §1
# [6] = biological target: GlcNAc(b1-2)Man(a1-3)[GlcNAc(b1-4)][GlcNAc(b1-2)Man(a1-6)]Man(b1-4)GlcNAc(b1-4)[Fuc(a1-6)]GlcNAc
# In short: as §1
# [7] = biological target: GlcNAc(b1-2)[GlcNAc(b1-4)]Man(a1-3)[GlcNAc(b1-2)Man(a1-6)]Man(b1-4)GlcNAc(b1-4)GlcNAc
# In short: as §1
# [8] = biological target: GlcNAc(b1-2)[GlcNAc(b1-4)]Man(a1-3)[GlcNAc(b1-4)][GlcNAc(b1-2)Man(a1-6)]Man(b1-4)GlcNAc(b1-4)GlcNAc
# In short: as §1
# [9] = biological target: GlcNAc(b1-2)[GlcNAc(b1-4)]Man(a1-3)[GlcNAc(b1-4)][GlcNAc(b1-2)[GlcNAc(b1-6)]Man(a1-6)]Man(b1-4)GlcNAc(b1-4)GlcNAc
# In short: as §1
# [10] = biological target: GlcNAc(b1-2)[GlcNAc(b1-4)]Man(a1-3)[GlcNAc(b1-4)][GlcNAc(b1-2)[GlcNAc(b1-6)]Man(a1-6)]Man(b1-4)GlcNAc(b1-4)[Fuc(a1-6)]GlcNAc
# In short: as §1
# [11] = biological target: GlcNAc(b1-2)[GlcNAc(b1-6)]Man(a1-6)[GlcNAc(b1-2)Man(a1-3)]Man(b1-4)GlcNAc(b1-4)GlcNAc
# In short: as §1
# [12] = biological target: GlcNAc(b1-2)[GlcNAc(b1-6)]Man(a1-6)[GlcNAc(b1-2)Man(a1-3)]Man(b1-4)GlcNAc(b1-4)[Fuc(a1-6)]GlcNAc
# In short: as §1
# [13] = biological target: GlcNAc(b1-2)[GlcNAc(b1-6)]Man(a1-6)[GlcNAc(b1-4)][GlcNAc(b1-2)Man(a1-3)]Man(b1-4)GlcNAc(b1-4)GlcNAc
# In short: as §1
# GlcNAc(b1-3)Fuc = biological target: GlcNAc(b1-3)Fuc
# In short: as §1
# GlcNAc(b1-3)Gal = biological target: GlcNAc(b1-3)Gal
# In short: as §1
# [14] = biological target: GlcNAc(b1-3)Gal(b1-3)GalNAc
# In short: as §1
# GlcNAc(b1-3)Gal(b1-4)Glc = biological target: GlcNAc(b1-3)Gal(b1-4)Glc
# In short: as §1
# [15] = biological target: GlcNAc(b1-3)Gal(b1-4)GlcNAc
# In short: as §1
# [16] = biological target: GlcNAc(b1-3)Gal(b1-4)GlcNAc(b1-2)Man(a1-3)[GlcNAc(b1-3)Gal(b1-4)GlcNAc(b1-2)Man(a1-6)]Man(b1-4)GlcNAc(b1-4)GlcNAc
# In short: as §1
# [17] = biological target: GlcNAc(b1-3)Gal(b1-4)GlcNAc(b1-2)Man(a1-3)[GlcNAc(b1-3)Gal(b1-4)GlcNAc(b1-2)Man(a1-6)]Man(b1-4)GlcNAc(b1-4)[Fuc(a1-6)]GlcNAc
# In short: as §1
# [18] = biological target: GlcNAc(b1-3)Gal(b1-4)GlcNAc(b1-2)[GlcNAc(b1-3)Gal(b1-4)GlcNAc(b1-6)]Man(a1-6)[GlcNAc(b1-3)Gal(b1-4)GlcNAc(b1-2)Man(a1-3)]Man(b1-4)GlcNAc(b1-4)GlcNAc
# In short: as §1
# [19] = biological target: GlcNAc(b1-3)Gal(b1-4)GlcNAc(b1-3)Gal(b1-4)GlcNAc
# In short: as §1
# [20] = biological target: GlcNAc(b1-3)Gal(b1-4)GlcNAc(b1-3)Gal(b1-4)GlcNAc(b1-2)Man(a1-3)[GlcNAc(b1-3)Gal(b1-4)GlcNAc(b1-3)Gal(b1-4)GlcNAc(b1-2)Man(a1-6)]Man(b1-4)GlcNAc(b1-4)GlcNAc
# In short: as §1
# [21] = biological target: GlcNAc(b1-3)Gal(b1-4)GlcNAc(b1-3)Gal(b1-4)GlcNAc(b1-2)Man(a1-3)[GlcNAc(b1-3)Gal(b1-4)GlcNAc(b1-3)Gal(b1-4)GlcNAc(b1-2)Man(a1-6)]Man(b1-4)GlcNAc(b1-4)[Fuc(a1-6)]GlcNAc
# In short: as §1
# [22] = biological target: GlcNAc(b1-3)Gal(b1-4)GlcNAc(b1-3)Gal(b1-4)GlcNAc(b1-2)[GlcNAc(b1-3)Gal(b1-4)GlcNAc(b1-3)Gal(b1-4)GlcNAc(b1-6)]Man(a1-6)[GlcNAc(b1-3)Gal(b1-4)GlcNAc(b1-3)Gal(b1-4)GlcNAc(b1-2)Man(a1-3)]Man(b1-4)GlcNAc(b1-4)[Fuc(a1-6)]GlcNAc
# In short: as §1
# [23] = biological target: GlcNAc(b1-3)Gal(b1-4)GlcNAc(b1-3)Gal(b1-4)GlcNAc(b1-3)Gal(b1-4)GlcNAc(b1-2)Man(a1-3)[GlcNAc(b1-3)Gal(b1-4)GlcNAc(b1-3)Gal(b1-4)GlcNAc(b1-3)Gal(b1-4)GlcNAc(b1-2)Man(a1-6)]Man(b1-4)GlcNAc(b1-4)GlcNAc
# In short: as §1
# [24] = biological target: GlcNAc(b1-3)Gal(b1-4)GlcNAc(b1-3)Gal(b1-4)GlcNAc(b1-3)Gal(b1-4)GlcNAc(b1-2)Man(a1-3)[GlcNAc(b1-3)Gal(b1-4)GlcNAc(b1-3)Gal(b1-4)GlcNAc(b1-3)Gal(b1-4)GlcNAc(b1-2)Man(a1-6)]Man(b1-4)GlcNAc(b1-4)[Fuc(a1-6)]GlcNAc
# In short: as §1
# [25] = biological target: GlcNAc(b1-3)Gal(b1-4)GlcNAc(b1-3)Gal(b1-4)GlcNAc(b1-3)Gal(b1-4)GlcNAc(b1-2)[GlcNAc(b1-3)Gal(b1-4)GlcNAc(b1-3)Gal(b1-4)GlcNAc(b1-3)Gal(b1-4)GlcNAc(b1-6)]Man(a1-6)[GlcNAc(b1-3)Gal(b1-4)GlcNAc(b1-3)Gal(b1-4)GlcNAc(b1-3)Gal(b1-4)GlcNAc(b1-2)Man(a1-3)]Man(b1-4)GlcNAc(b1-4)[Fuc(a1-6)]GlcNAc
# In short: as §1
# [26] = biological target: GlcNAc(b1-3)Gal(b1-4)GlcNAc(b1-3)Gal(b1-4)GlcNAc(b1-3)Gal(b1-4)GlcNAc(b1-3)Gal(b1-4)GlcNAc(b1-2)Man(a1-3)[GlcNAc(b1-3)Gal(b1-4)GlcNAc(b1-3)Gal(b1-4)GlcNAc(b1-3)Gal(b1-4)GlcNAc(b1-3)Gal(b1-4)GlcNAc(b1-2)Man(a1-6)]Man(b1-4)GlcNAc(b1-4)GlcNAc
# In short: as §1
# [27] = biological target: GlcNAc(b1-3)Gal(b1-4)GlcNAc(b1-3)Gal(b1-4)GlcNAc(b1-3)Gal(b1-4)GlcNAc(b1-3)Gal(b1-4)GlcNAc(b1-2)Man(a1-3)[GlcNAc(b1-3)Gal(b1-4)GlcNAc(b1-3)Gal(b1-4)GlcNAc(b1-3)Gal(b1-4)GlcNAc(b1-3)Gal(b1-4)GlcNAc(b1-2)Man(a1-6)]Man(b1-4)GlcNAc(b1-4)[Fuc(a1-6)]GlcNAc
# In short: as §1
# [28] = biological target: GlcNAc(b1-3)Gal(b1-4)GlcNAc(b1-3)Gal(b1-4)GlcNAc(b1-3)Gal(b1-4)GlcNAc(b1-3)Gal(b1-4)GlcNAc(b1-2)[GlcNAc(b1-3)Gal(b1-4)GlcNAc(b1-3)Gal(b1-4)GlcNAc(b1-3)Gal(b1-4)GlcNAc(b1-3)Gal(b1-4)GlcNAc(b1-6)]Man(a1-6)[GlcNAc(b1-3)Gal(b1-4)GlcNAc(b1-3)Gal(b1-4)GlcNAc(b1-3)Gal(b1-4)GlcNAc(b1-3)Gal(b1-4)GlcNAc(b1-2)Man(a1-3)]Man(b1-4)GlcNAc(b1-4)[Fuc(a1-6)]GlcNAc
# In short: as §1
# [29] = biological target: GlcNAc(b1-3)Gal(b1-4)GlcNAc(b1-3)Gal(b1-4)GlcNAc(b1-3)GalNAc
# In short: as §1
# [30] = biological target: GlcNAc(b1-3)Gal(b1-4)GlcNAc(b1-3)GalNAc
# In short: as §1
# [31] = biological target: GlcNAc(b1-3)Gal(b1-4)GlcNAc(b1-3)[GlcNAc(b1-3)Gal(b1-4)GlcNAc(b1-3)]GalNAc
# In short: as §1
# [32] = biological target: GlcNAc(b1-3)Gal(b1-4)GlcNAc(b1-6)[Gal(b1-3)]GalNAc
# In short: as §1
# [33] = biological target: GlcNAc(b1-3)Gal(b1-4)GlcNAc(b1-6)[GlcNAc(b1-3)Gal(b1-3)]GalNAc
# In short: as §1
# [34] = biological target: GlcNAc(b1-3)Gal(b1-4)GlcNAc(b1-6)[GlcNAc(b1-3)]Gal(b1-4)GlcNAc
# In short: as §1
# GlcNAc(b1-3)GalNAc = biological target: GlcNAc(b1-3)GalNAc
# In short: as §1
# GlcNAc(b1-3)Man = biological target: GlcNAc(b1-3)Man
# In short: as §1
# [35] = biological target: GlcNAc(b1-3)[GlcNAc(b1-4)][GlcNAc(b1-6)]GlcNAc
# In short: as §1
# [36] = biological target: GlcNAc(b1-3)[GlcNAc(b1-6)]Gal(b1-4)GlcNAc
# In short: as §1
# [37] = biological target: GlcNAc(b1-3)[GlcNAc(b1-6)]GalNAc
# In short: as §1
# [38] = biological target: GlcNAc(b1-4)Gal(b1-4)GlcNAc
# In short: as §1
# GlcNAc(b1-4)GlcNAc = biological target: GlcNAc(b1-4)GlcNAc
# In short: as §1
# [39] = biological target: GlcNAc(b1-4)GlcNAc(b1-4)GlcNAc
# In short: as §1
binder,measurement,setting,value
B1,glycan array binding signal (z-score),[1],-0.513
same,glycan array binding signal (z-score),[2],-0.299
same,glycan array binding signal (z-score),[3],-0.493
same,glycan array binding signal (z-score),[4],-0.302
same,glycan array binding signal (z-score),[5],-0.23
same,glycan array binding signal (z-score),[6],-0.525
same,glycan array binding signal (z-score),[7],-0.474
same,glycan array binding signal (z-score),[8],-0.526
same,glycan array binding signal (z-score),[9],-0.526
same,glycan array binding signal (z-score),[10],-0.494
same,glycan array binding signal (z-score),[11],-0.538
same,glycan array binding signal (z-score),[12],-0.417
same,glycan array binding signal (z-score),[13],-0.509
same,glycan array binding signal (z-score),GlcNAc(b1-3)Fuc,-0.178
same,glycan array binding signal (z-score),GlcNAc(b1-3)Gal,-0.435
same,glycan array binding signal (z-score),[14],-0.119
same,glycan array binding signal (z-score),GlcNAc(b1-3)Gal(b1-4)Glc,-0.387
same,glycan array binding signal (z-score),[15],-0.518
same,glycan array binding signal (z-score),[16],-0.21
same,glycan array binding signal (z-score),[17],-0.267
same,glycan array binding signal (z-score),[18],0.491
same,glycan array binding signal (z-score),[19],-0.458
same,glycan array binding signal (z-score),[20],0.539
same,glycan array binding signal (z-score),[21],-0.076
same,glycan array binding signal (z-score),[22],0.305
same,glycan array binding signal (z-score),[23],-0.17
same,glycan array binding signal (z-score),[24],0.109
same,glycan array binding signal (z-score),[25],0.253
same,glycan array binding signal (z-score),[26],-0.323
same,glycan array binding signal (z-score),[27],-0.429
same,glycan array binding signal (z-score),[28],0.165
same,glycan array binding signal (z-score),[29],0.072
same,glycan array binding signal (z-score),[30],0.521
same,glycan array binding signal (z-score),[31],0.704
same,glycan array binding signal (z-score),[32],-0.065
same,glycan array binding signal (z-score),[33],-0.098
same,glycan array binding signal (z-score),[34],-0.344
same,glycan array binding signal (z-score),GlcNAc(b1-3)GalNAc,-0.347
same,glycan array binding signal (z-score),GlcNAc(b1-3)Man,0.024
same,glycan array binding signal (z-score),[35],-0.373
same,glycan array binding signal (z-score),[36],-0.169
same,glycan array binding signal (z-score),[37],-0.019
same,glycan array binding signal (z-score),[38],-0.317
same,glycan array binding signal (z-score),GlcNAc(b1-4)GlcNAc,-0.114
same,glycan array binding signal (z-score),[39],-0.244
